Hit rate of the full screen: of about 220,000 compounds, about 16,000 (7.3%) were called active. The inconclusive results got no clear call from the source; some entries with a clear call stand among them for comparison. Calls follow the shape of the dose curve; as a rule, active = well fitted inhibition curve with a large enough effect (not every such curve was filed as active); inconclusive = small, poorly fitted or top-dose-only effect, or another doubt; inactive = no such curve, though single readings can be large or run the other way. Potencies of inconclusive entries are left out as doubtful fits.
Target: Aldehyde dehydrogenase 1A1 (Homo sapiens) (UniProt P00352)
Sequence of UniProt P00352 (P00352 whole entry, looked up): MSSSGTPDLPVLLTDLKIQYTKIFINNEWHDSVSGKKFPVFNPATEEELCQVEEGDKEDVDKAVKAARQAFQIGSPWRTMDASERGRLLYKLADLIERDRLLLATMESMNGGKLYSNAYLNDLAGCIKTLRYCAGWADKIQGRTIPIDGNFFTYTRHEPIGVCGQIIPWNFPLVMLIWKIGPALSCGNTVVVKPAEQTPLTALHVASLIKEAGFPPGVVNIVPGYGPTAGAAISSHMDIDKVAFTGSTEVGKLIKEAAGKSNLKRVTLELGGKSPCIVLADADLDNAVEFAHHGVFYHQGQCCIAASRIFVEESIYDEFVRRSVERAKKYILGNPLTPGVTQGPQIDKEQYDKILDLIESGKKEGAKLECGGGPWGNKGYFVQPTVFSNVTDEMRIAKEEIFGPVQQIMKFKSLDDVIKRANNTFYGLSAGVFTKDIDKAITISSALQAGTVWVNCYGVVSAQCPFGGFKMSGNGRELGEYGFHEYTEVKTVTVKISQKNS
Assay: qHTS Assay for Inhibitors of Aldehyde Dehydrogenase 1 (ALDH1A1)
Settings: Purified ALDH1A1, NADH fluorescence, propionaldehyde substrate; series mostly up to 75.3 µM
Potency is read from the fitted curve at half-maximal effect; tags tell the direction and shape of the fitted curve.

Structure (SMILES)	Potency
CN(C)c1ccc(-c2nnn(CC(=O)N3c4ccccc4CCc4ccccc43)n2)cc1	inconclusive [inhibitor, partial curve]
Cc1noc(C)c1CSc1nnc(-c2ccccc2F)n1CCc1ccccc1	inconclusive [inhibitor, partial curve]
Cc1ccc(S(=O)(=O)N2CCN(C(=O)C3Cc4ccccc4CN3C(=O)c3ccco3)CC2)cc1 (stereo not given)	active: 8.91 µM
COc1ccc(C(=O)NC=C2C(=O)OC(C)(C)OC2=O)cc1	active: 12.6 µM
CC1(C(=O)NC(=S)N(Cc2ccccc2)c2ccccn2)CC1(Cl)Cl (stereo not given)	inconclusive [inhibitor, partial curve]
O=C(NC(=S)Nc1ccc(Cl)cc1)c1ccccc1	active: 15 µM
COc1ccc(C(C(=O)NC2CCCCC2)N(C(=O)Cc2c[nH]c3ccccc23)c2ccccc2C)cc1OC (stereo not given)	inconclusive [inhibitor, partial curve]
N#C/C(=C\c1ccc(O)cc1)C(=O)N1CCCC1	inconclusive [inhibitor, single point]
CCOC(=O)CCC(NC(=O)CCC(=O)NC(CCC(=O)OCC)C(=O)OCC)C(=O)OCC (stereo not given)	inactive
C=CCC1(O)CC(c2ccco2)NC(c2ccco2)C1CCC (stereo not given)	inconclusive [inhibitor, single point]
O=C(NCC(O)CO)c1ccc2[nH]c3ccccc3c2c1 (stereo not given)	inconclusive [inhibitor, partial curve]
O=C(Nc1ccccc1)N1CCCN(Cc2ccccc2F)C1	inactive
CCOc1ccc2oc(-c3ccccc3)c(C(=O)N3CCN(CCO)CC3)c2c1	inconclusive [inhibitor, partial curve]
O=C(CSc1n[nH]c(-c2cccnc2)n1)OC1CCCCC1	inactive
Oc1csc(Cc2nc(-c3ccc(-c4ccccc4)cc3)cs2)n1	inconclusive [inhibitor, partial curve]
CN1C(=O)C2C(c3ccc(N(C)C)cc3)NN(Cc3ccccc3)C2C1=O (stereo not given)	inconclusive [inhibitor, single point]
O=C(O)CN(Cc1ccccc1)S(=O)(=O)c1ccc2c(c1)OCCO2	inconclusive [inhibitor, single point]
CS(=O)(=O)N1CCN(c2ccc(C(=O)NC34CC5CC(CC(C5)C3)C4)cc2[N+](=O)[O-])CC1	inconclusive [inhibitor, partial curve]
CCOC(=O)CNC(=O)CN1CCCN(S(=O)(=O)c2ccc(Br)s2)CC1	inconclusive [inhibitor, partial curve, poor fit]
O=C1CN(c2ccc(Cl)cc2)C2(CCCCC2)S1	inactive
O=[N+]([O-])c1ccccc1/C=N/NC1=NS(=O)(=O)c2ccccc21	inconclusive [inhibitor, single point]
Oc1ccc(/C=N/NC(=S)Nc2cccnc2)cc1O	inconclusive [inhibitor, single point]
COC(=O)c1cc2ccccc2oc1=O	inconclusive [inhibitor, partial curve]
Cc1cc(=O)[nH]c(SCc2cccc3cccnc23)n1	inconclusive [inhibitor, single point]

Structure (SMILES)	Potency
CCCN1C[C@H](CSC)C[C@H]2c3cccc4[nH]cc(c34)C[C@@H]21	inactive
CC(=O)N1CCN(C(=S)c2ccc(-c3ccc(Cl)cc3)o2)CC1	inactive
N[C@@]1(C(=O)O)CO[C@H]2[C@H](C(=O)O)[C@H]21	inactive
Cc1occc1-c1nnc(SCC(=O)NCc2ccco2)n1CC(C)C	inconclusive [inhibitor, single point]
CC1(C)Cc2c(c(N3CCOCC3)nc3sc4c(=O)[nH]cnc4c23)CS1	inconclusive [inhibitor, single point]
COc1cc(NC(=O)c2ccccc2F)c(OC)cc1NC(=O)CN1CCOCC1	active: 25.1 µM
O=C(Cc1csc(-c2ccccc2)n1)NCc1ccc(F)cc1	inconclusive [inhibitor, single point]
Cc1ccc(Nc2nc(C)c3c(n2)CC(C)CC3=O)c(C)c1 (stereo not given)	inconclusive [inhibitor, single point]
C1=C(c2ccccc2)Nc2nnnn2C1	inconclusive [inhibitor, partial curve]
COc1ccc(Br)cc1CNC(=O)Nc1cccs1	inconclusive [inhibitor, single point]
COc1ccc(OC)c(NC(=O)[C@H]2CC=CC[C@H]2C(=O)O)c1	inactive
CCOC(=O)c1nn(-c2ccc(C)cc2)c(C)c1C(C)=O	inconclusive [inhibitor, single point]
CCc1ccc2[nH]c(=O)c(CN(Cc3nnnn3C3CCCC3)C3CCCCC3)cc2c1	active: 14.1 µM
O=C(CSc1nnc(-c2ccco2)n1Cc1ccccc1)OC1CCCCC1	inconclusive [inhibitor, single point]
O=S(=O)(/C(=C/c1ccc(C(F)(F)F)cc1)c1nc2ccccc2[nH]1)c1ccccc1	inconclusive [inhibitor, partial curve]
Cc1cccc(NC(=O)/C(C#N)=C\c2cn(CC(=O)O)c3ccccc23)c1	active: 20 µM
Cc1ccc(Cl)cc1NC(=S)N(C)N	inactive
CC1(C)C2CCC1(C)C(OC(=O)CCn1ccnc1)C2 (stereo not given)	inconclusive [inhibitor, single point]
CCOC(=O)C1CCN(c2c(C(=O)c3ccccc3)cnc3ccc(CC)cc23)CC1	inconclusive [inhibitor, partial curve]
O=C(NC(=S)N1CCCc2ccccc21)c1ccccc1	inconclusive [inhibitor, full curve, poor fit]
CCC(C)n1cnc2c(c1=O)c1nc3ccccc3nc1n2-c1ccc2c(c1)OCCO2 (stereo not given)	inconclusive [inhibitor, single point]
Cc1ccc2ncccc2c1	inconclusive [inhibitor, single point]
O=c1c(-c2cc(O)c(O)c(O)c2)coc2cc(O)c(O)c(O)c12	active: 25.1 µM
CCOC(=O)C1=C(O)CSC1=Nc1ccc(C)cc1	inconclusive [inhibitor, partial curve]

Structure (SMILES)	Potency
COc1ccc(Cc2[nH]n3c(=O)c(Cl)c(C)nc3c2-c2ccccc2)cc1	inconclusive [inhibitor, partial curve]
Fc1ccc(-n2cc(CNCCc3ccncc3)c(-c3ccccc3Cl)n2)cc1	inactive
Cc1cccn2c(=O)c(/C=C(\C#N)C(=O)NC3CCS(=O)(=O)C3)c(N3CCC(C)CC3)nc12 (stereo not given)	inconclusive [inhibitor, partial curve]
COc1ccccc1N(C(=O)CN1C(=O)c2ccccc2S1(=O)=O)C(C(=O)NCC1CCCO1)c1ccc(F)cc1 (stereo not given)	inconclusive [inhibitor, single point]
O=CC(=O)c1ccccc1	active: 2.82 µM
COc1ccc(N2CCN(CCOc3ccc4c(C)cc(=O)oc4c3)CC2)cc1	inconclusive [inhibitor, partial curve]
COc1ccccc1CNc1ccc([N+](=O)[O-])cc1C	inconclusive [inhibitor, single point]
CC(=O)c1ccc(NC(=O)CC(NCCC2=CCCCC2)C(=O)O)cc1 (stereo not given)	inconclusive [inhibitor, single point]
Fc1ccc(-c2nnc3ccc(N4CCc5ccccc5C4)nn23)cc1	inconclusive [inhibitor, single point]
CSc1nc(-c2ccccc2)cc(C(F)(F)F)c1C#N	inconclusive [inhibitor, single point]
Cn1c(SCc2nn[nH]n2)nc2c1c(=O)n(Cc1ccccc1Cl)c(=O)n2C	inconclusive [inhibitor, single point]
O=C(CSc1nnc(-c2ccccc2O)o1)N1CCc2ccccc2C1	active: 22.4 µM
CSCC(=O)N1CCCC(C(=O)c2cc(F)ccc2F)C1 (stereo not given)	active: 10 µM
N#Cc1cccc(-c2nc3cnc(N4CCOCC4)nc3n(C3CC3)c2=O)c1	inconclusive [inhibitor, partial curve]
CCCCCCN(C(=O)CCCCCN1C(=O)NC(C2CC2)C(C(=O)OCc2ccccc2)=C1C)C(C(=O)NCCCC)c1ccc(OCC(=O)OC)c(C(=O)OC)c1 (stereo not given)	active: 12.6 µM
CCOc1ccccc1NC(=S)N1CCC(NC(=O)C(C)(C)C)CC1	inactive
Cn1c(=O)c(N)c2c3c(c(Br)ccc31)C(=O)c1ccccc1-2	inconclusive [inhibitor, single point]
C=CCNc1nc(-c2cc3ccccc3o2)cs1	inconclusive [inhibitor, single point]
CCOc1ccccc1CN1C(=O)NC(C)(c2ccccc2)C1=O (stereo not given)	inconclusive [inhibitor, single point]
CN(C)c1ccc(-c2n[nH]c(=S)n2-c2ccccc2)cc1	inconclusive [inhibitor, partial curve]
CC(Oc1ccc(F)cc1)C(=O)NN (stereo not given)	active: 5.01 µM
O=S(=O)(NCC1CCCO1)c1cccc(S(=O)(=O)N2CCCC2)c1 (stereo not given)	inconclusive [inhibitor, single point]

Source: PubChem BioAssay AID1030 (National Center for Advancing Translational Sciences (NCATS), 2008)
